Consider 37 compounds from the supplement of paper PMC9446081.

In all, about 39,000 compounds went through this assay and about 220 (0.56%) showed activity. The list shows a part of the results.
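Note: static incubation at 37 °C against the wild-type strain, values averaged over two biological replicates.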

The assay deals with Escherichia coli K-12 BW25113. In words: relative growth (OD600 normalised to plate interquartile mean) (fraction); higher = less growth inhibition, active = 0.2 or less. To be noted: 50 µM; LB; incubation time: overnight (16-24 h).
Regarding `COc1ccc(CN(C)C[C@@H]2OCCCC[C@H](C)Oc3ccc(NS(=O)(=O)c4ccc(F)cc4)cc3C(=O)N([C@@H](C)CO)C[C@H]2C)cc1`, the relative growth was inactive: 1.02. With `C[C@@H]1CN([C@H](C)CO)C(=O)Cc2cc(NC(=O)Cn3cnnn3)ccc2O[C@@H]1CN(C)CC1CCCCC1`, the relative growth is inactive: 0.962. Take `CC(C)CCC(=O)N1C[C@@H]2c3nc(N4CCOCC4)ncc3CS(=O)(=O)[C@H]2C1`: the relative growth is inactive: 0.974. With `CCCSc1ccc2nc(NC(=O)OC)[nH]c2c1` the figure was inactive: 1.06.

As for `CO[C@H]1CN(C)C(=O)c2ccc(NS(C)(=O)=O)cc2OC[C@H](C)N(C(=O)CN(C)C)C[C@@H]1C`, the relative growth is inactive: 0.988. Turning to `COc1ccc(S(=O)(=O)N(C)C[C@H]2OCCCC[C@H](C)Oc3ccc(NC(=O)Nc4cccc5ccccc45)cc3C(=O)N([C@@H](C)CO)C[C@@H]2C)cc1`, the relative growth is inactive: 1.05. Regarding `CN(C)CC#Cc1ccc([C@H]2[C@@H](CO)N3C(=O)CN(C(=O)CN(C)C)C[C@H]23)cc1`, the relative growth was inactive: 0.99.

`C[C@H](CO)N1C[C@H](C)[C@@H](CN(C)S(=O)(=O)c2cccs2)Oc2ccc(NC(=O)Cc3ccccc3)cc2CC1=O`: the relative growth is inactive: 0.957. With `COc1ccc(NC(=O)Nc2ccc3c(c2)C(=O)N([C@H](C)CO)C[C@H](C)[C@H](CN(C)Cc2ccc(-c4ccccc4)cc2)O3)cc1` the figure was inactive: 1; with `CC(=O)NC1=NC(=O)CS1`, inactive: 0.99. The figure for `COc1ncc(-c2nc(N3CCOCC3)nc3c(CN4CCC(C(C)(C)O)CC4)cc(F)cc23)cc1NS(C)(=O)=O` is inactive: 1.01; for `C[C@@H]1CN([C@H](C)CO)C(=O)c2cc(NC(=O)Nc3cccc4ccccc34)ccc2O[C@@H](C)CCCCO[C@H]1CN(C)S(=O)(=O)c1ccc(F)cc1` it is inactive: 1.05; for `C[C@H](CO)N1C[C@H](C)[C@H](CN(C)S(=O)(=O)c2ccccc2F)Oc2ncc(C#Cc3ccccc3F)cc2C1=O` it is inactive: 0.997. With `CN(C)CCCNC(=O)C[C@H]1CC[C@@H]2[C@H](COc3ccc(NC(=O)c4ccccc4F)cc3C(=O)N2C)O1` the figure was inactive: 1. In the case of `COCc1n[nH]c(C)c1C(=O)O`, the relative growth was inactive: 0.982. The figure for `C[C@H](CO)N1C[C@H](C)[C@H](CN(C)S(=O)(=O)c2ccc(Cl)cc2)Oc2ccc(NC(=O)CCCN(C)C)cc2CC1=O` is inactive: 1.02; for `Cc1ccc(S(=O)(=O)N(C)C[C@@H]2OCCCC[C@H](C)Oc3ccc(NC(=O)Cc4ccccc4)cc3C(=O)N([C@@H](C)CO)C[C@H]2C)cc1` it is inactive: 1.03. The figure for `Cc1noc(C)c1NC(=O)N(C)C[C@@H]1OCCCC[C@H](C)Oc2ccc(NC(=O)Nc3ccc(C(F)(F)F)cc3)cc2C(=O)N([C@H](C)CO)C[C@@H]1C` is inactive: 1.03; for `C=CCC[C@@H](Cc1ccc(F)cc1)C(=O)O[C@H](CNC(=O)[C@@H](CC=C)CC(=O)N[C@@H](CO)Cc1ccccc1)c1ccccc1` it is inactive: 1.04.

Consider `COc1cccc(S(=O)(=O)N(C)C[C@@H]2Oc3ncc(C#Cc4ccccc4)cc3C(=O)N([C@H](C)CO)C[C@@H]2C)c1`, for which the relative growth is inactive: 1.04. For the compound `C[C@@H]1CN([C@H](C)CO)C(=O)Cc2cc(NC(=O)CCCN(C)C)ccc2O[C@H]1CN(C)C(=O)Nc1ccc2c(c1)OCO2`, the relative growth was inactive: 1.01. Take `C[C@H](O)C#Cc1ccc2c(c1)O[C@H](CN(C)C(=O)c1ccncc1)[C@H](C)CN([C@H](C)CO)S2(=O)=O`: the relative growth was inactive: 0.987. With `COc1ccc2c3c(n(c2c1)C)[C@@H](CO)N(Cc1cc(cc(c1)OC)OC)C[C@]13CCN(CC1)S(=O)(=O)c1cn(cn1)C` the figure was inactive: 0.973; with `C[C@@H]1CCCCO[C@@H](CN(C)C(=O)Nc2ccc(F)cc2)[C@@H](C)CN([C@H](C)CO)C(=O)c2cc(NC(=O)Nc3ccc4c(c3)OCO4)ccc2O1`, inactive: 1.01; with `C[C@H](CO)N1C[C@H](C)[C@H](CN(C)S(=O)(=O)c2ccc(C#N)cc2)Oc2ncc(-c3ccccc3)cc2C1=O`, inactive: 0.991. With `COc1ccc(NC(=O)N(C)C[C@@H]2Oc3ccc(NC(=O)CCN4CCOCC4)cc3CC(=O)N([C@H](C)CO)C[C@H]2C)cc1` the figure was inactive: 1.02.

As for `C[C@@H]1CN([C@@H](C)CO)C(=O)c2cccc(NC(=O)c3cnccn3)c2O[C@@H]1CN(C)C(=O)NC1CCCCC1`, the relative growth is inactive: 0.995. The figure for `C[C@H](CO)N1C[C@H](C)[C@@H](CN(C)C)OCCCC[C@H](C)Oc2ccc(NC(=O)CCCN(C)C)cc2C1=O` is inactive: 0.978; for `C[C@@H]1CN([C@@H](C)CO)C(=O)Cc2cc(NC(=O)CCCN(C)C)ccc2O[C@H]1CN(C)S(=O)(=O)c1cccs1` it is inactive: 1.03. With `C[C@@H]1CN([C@@H](C)CO)C(=O)c2cc(NC(=O)Nc3ccc(F)cc3)ccc2O[C@@H](C)CCCCO[C@H]1CN(C)Cc1ccncc1` the figure was inactive: 1.01; with `COc1ccc(S(=O)(=O)Nc2ccc3c(c2)C(=O)N([C@H](C)CO)C[C@H](C)[C@H](CN(C)S(=O)(=O)c2ccc(F)cc2)O3)cc1`, inactive: 1.03. With `C[C@@H]1CN([C@@H](C)CO)S(=O)(=O)c2ccc(Br)cc2O[C@H]1CN(C)C(=O)c1ccccc1` the figure was inactive: 0.978; with `O=C(C[C@@H]1CC[C@H]2[C@@H](COC[C@@H](O)CN2C(=O)Nc2cc(Cl)cc(Cl)c2)O1)N1CCOCC1`, inactive: 0.96; with `Cc1ccc(S(=O)(=O)Nc2ccc3c(c2)CC(=O)N([C@H](C)CO)C[C@@H](C)[C@H](CN(C)Cc2ccc(Cl)c(Cl)c2)O3)cc1`, inactive: 1.01.

For the compound `Cc1ccc(S(=O)(=O)Nc2ccc3c(c2)CC(=O)N([C@H](C)CO)C[C@@H](C)[C@@H](CN(C)Cc2ccc(-c4ccccc4)cc2)O3)cc1`, the relative growth was inactive: 0.99.

`CON=C(C(=O)NC1C(=O)N2C(C(=O)[O-])=C(CSc3nc(=O)c([O-])nn3C)CSC12)c1csc(N)n1.O.O.O.[Na+].[Na+]` (configuration not stated): the relative growth is active: 0.0494. The figure for `C[C@H]1CN([C@@H](C)CO)C(=O)c2cccc(NC(=O)Nc3cccc4ccccc34)c2O[C@@H]1CN(C)S(=O)(=O)c1ccc(F)cc1` is inactive: 1.01.
